Laboratory results from PubChem BioAssay AID493208 (National Center for Advancing Translational Sciences (NCATS), 2011).
The whole screen tested about 44,000 compounds, of which about 340 (0.77%) were called active. Another 5% or so got no clear call; they are omitted. Calls follow the shape of the dose curve; as a rule, active = well fitted inhibition curve with a large enough effect; inconclusive = small, poorly fitted or top-dose-only effect; inactive = flat fitted curve, though single readings scatter. The list shows a part of the results.

Test: Acumen qHTS Assay for Inhibitors of the mTORC1 Signaling Pathway in MEF (Tsc2-/-, p53-/-) Cells: Sytravon;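 also: plate controls were DMSO for no effect and rapamycin for full effect; nearly all actives have a fitted effect of over 50% in size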
Conditions: phospho-rpS6 immunofluorescence/PI, 24 h; series mostly up to 38.3 µM; activity change, negative = inhibition: at the top concentration
How it was run: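 Immunofluorescence of rpS6 phosphorylation in Tsc2-/-, p53-/- MEFs after 24 h compound exposure, normalized to propidium iodide signal. Activity is expressed as % positive cells, thresholded with 7.5 nM rapamycin.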

Activity change, negative = inhibition, inactive:
Cc1ccccc1Nc1cc(C(=O)NC2CCCC2)c2ccccc2n1 -0.733%, CCCOc1ccc(NC(=O)CC2C(=O)N(c3ccccc3)C(=O)N2Cc2ccc(F)cc2)cc1 (stereo unspecified) 0%, Cc1cccc(Cn2cc(/C=C(/C#N)C(=O)Nc3cccc(Cl)c3)c3ccccc32)c1 2.87%, CCN(C(=O)c1cc2c(=O)oc3ccccc3c2s1)c1ccc(C)c(C)c1 -5.51%, Cc1ccc(Cn2c(C(=O)O)c(CNC3CCCCC3)c3ccc(C)cc32)cc1 6.36%, Cc1ccc(C(=O)NCC(c2ccc3c(c2)OCO3)N2CCN(c3ccc(F)cc3)CC2)cc1 (stereo unspecified) 5.44%, CCOc1ccccc1NC(=O)Cn1c(=O)n(Cc2nc(C)no2)c(=O)c2ccccc21 -0.917%, Cc1ccccc1C(=O)Nc1ccccc1OCc1cc(=O)n2ccccc2n1 2.93%, CCN(CC)c1nc2c(S(=O)(=O)c3ccccc3)nnn2c2ccc(Cl)cc12 -2.93%, CCOc1ccccc1CNC(=O)c1nc(-c2ccc(Cl)cc2)n2c1CCCCC2 -1.67%, Cc1cccc(CS(=O)(=O)Cc2ccc(C(=O)NCc3ccccc3)o2)c1 -6.09%, CCOc1ccc(CCNC(=O)c2c(C)oc3ncn(CC(C)C)c(=O)c23)cc1 4.8%, Cc1cccc(-c2nc(S(=O)(=O)c3ccc(Cl)cc3)c(N3CCCCCC3)o2)c1 -17.9%, Clc1ccccc1CNc1ncnc2c1nc1n2CCCC1 1.03%, COC(=O)c1c(NC(=O)COc2ccc(C)cc2Br)sc2c1CCCC2 -0.738%, Cc1cccc(NC(=O)C2CCCN(S(=O)(=O)c3ccc4c(c3)oc(=O)n4C)C2)c1C (stereo unspecified) 1.77%, Cc1ccc(CNC(=O)CN(C)S(=O)(=O)c2ccc3c(c2)c(=O)n(C)c(=O)n3C)cc1 -1.53%, CCOc1ccc(N(C)S(=O)(=O)c2cc(-c3cc(C)no3)ccc2OC)cc1 -1.24%, COc1cccc(N2C(=O)C(CC(=O)Nc3ccccc3)N(CCc3sccc3C)C2=O)c1 (stereo unspecified) 1.91%, CCc1ccccc1NC(=O)CN1C(=O)C2CCCN2c2ccc(S(=O)(=O)N(CC)CC)cc21 (stereo unspecified) -5.05%, Cc1c(CNC2CCC(C)CC2)c(C(=O)O)c(C)n1Cc1ccc(Cl)cc1 (stereo unspecified) -3.79%, CCOC(=O)C(CC)Sc1ncnc2c1c(-c1ccccc1)cn2-c1ccc(OC)cc1 (stereo unspecified) 1.35%, O=C(CSc1nnc(-c2ccccc2)c(-c2ccccc2)n1)NCCc1ccccc1 2.27%, CCn1c(=O)c2cc(C(=O)NCc3ccc(F)cc3Cl)sc2c2ccccc21 -4.73%, Cc1ccc(C)c(N(C)C(=O)c2cc3c(s2)-c2ccccc2OC3)c1 -3.05%, Cc1cc(=O)n(CC(=O)N2CCCc3ccccc32)c2c1c(C)nn2-c1cccc(F)c1 0.463%, Cc1cc(C)c(OCC(=O)N(Cc2ccc(N(C)C)cc2)CC2CCCO2)c(C)c1 (stereo unspecified) 0.189%, CCc1cccc(C)c1NC(=O)CCCn1c(C)c2cnn(-c3ccccc3)c(=O)c2c1C -0.239%, CCCN(C(=O)Cc1nc(-c2ccc(OC)cc2)no1)c1ccccc1C -7.89%, CCC(C)NC(=O)Cn1c(=O)n(CCCCCC(=O)Nc2ccccc2)c(=O)c2sccc21 (stereo unspecified) -6.65%, CCCCOC(=O)c1ccc(OC(=O)c2sc3ncn(Cc4cccc(F)c4)c(=O)c3c2C)cc1 2.45%, CCOC(=O)c1[nH]c(C)c(CCC(=O)Nc2ccccc2OCC)c1C -20.6%, CN1C(=O)CC(C(=O)Nc2ccc(C(=O)O)cc2)SC1=Nc1ccc(Cl)cc1 (stereo unspecified) -1.11%, Cn1c(=O)c2c(nc(NCCCCO)n2Cc2ccccc2Cl)n(C)c1=O -1.25%, COc1ccc2c(C)c(CCC(=O)NCCc3ccc(OC)c(OC)c3)c(=O)oc2c1 4.6%, COc1ccc(C(=O)Nc2nnc(SCc3cc(=O)c4cccc(F)c4[nH]3)s2)cc1 7.93%, CCN(CC)CCCNC(=O)Cn1ncc2c3ccccc3n(Cc3ccccc3)c2c1=O 1.34%, CCN(CC)c1ccc(NS(=O)(=O)c2cc(-c3onc(C)c3C)ccc2OC)c(C)c1 3.73%, Cc1ccc2c(=O)cc(C(=O)Nc3ccc(S(=O)(=O)N4CCCCC4C)cc3)oc2c1C (stereo unspecified) 2.08%, CC(=O)Nc1cc(C(=O)NCc2ccc(F)cc2)ccc1S(=O)(=O)c1ccc(C)cc1 3.75%, COc1cccc(-c2nnc(SCC(=O)N(C)c3ccccc3)o2)c1 -12.8%, CCOC(=O)c1ccc(NC(=O)CC2C(=O)N(c3cccc(OC)c3)C(=O)N2Cc2cccnc2)cc1 (stereo unspecified) -9.84%, CC(=O)c1ccc(NC(=O)C(C)n2nc(-c3ccccc3)ccc2=O)cc1 (stereo unspecified) -0.787%, CCn1c2ccccc2c2cc(CN3CCN(Cc4ccc(Cl)cc4)CC3)ccc21 -27.2%, Cc1cccc(C)c1NC(=O)Cn1cc(C(=O)c2ccco2)c2ccccc21 1.65%, O=C(Cn1ncc2c3ccccc3n(Cc3cccc(Cl)c3)c2c1=O)NCCCc1ccccc1 -0.685%, COc1ccc(-c2c(C)nn3c(-c4ccccc4)cc(C)nc23)cc1OC -2.03%, Cc1cc(C)n(C(C)CC(=O)Nc2cccc(C#N)c2)n1 (stereo unspecified) 2.19%, CCc1nc(Nc2ccc(F)c(Cl)c2)c2c3c(sc2n1)CCCC3 -5.83%, CCOc1ccc(-c2nn(-c3ccc(F)cc3)c3c2cnc2ccc(F)cc23)cc1 2.98%, Cc1cc(O)c(C(c2ccccc2)N2CCN(c3ccccc3)CC2)c(=O)n1Cc1ccco1 (stereo unspecified) 3.68%, COc1ccc(N2CCN(C(=O)C3CCN(S(=O)(=O)c4cccc5nonc45)CC3)CC2)cc1 -0.237%, CCN1CCN(CCCNC(=O)CS(=O)(=O)Cc2nc(-c3ccccc3C)oc2C)CC1 -8.69%, Cc1cc(C)cc(NC(=O)c2ccc3oc(=O)c(S(=O)(=O)c4ccc(F)cc4)cc3c2)c1 -9.25%, COc1ccc(NC(=O)Cn2c(=O)c3cccn3c3ccccc32)cc1Cl -1.38%, O=C(Nc1ccc(-c2nc3ccccc3o2)c(O)c1)c1ccccc1 -28.6%, Cc1ccc(-c2nnc(Nc3ccc(C(N)=O)cc3)c3ccccc23)cc1S(N)(=O)=O 3.01%, COc1cccc2sc(NC(=O)c3ccc(S(=O)(=O)N4CCC(C)CC4)cc3)nc12 -2.71%, CCOC(=O)c1noc2ncnc(Nc3cc(Cl)c(OC)cc3OC)c12 4.12%, COc1ccc(C)cc1NC(=O)Nc1cc(C(=O)NCc2ccc(C)cc2)ccc1N1CCCC1 8.05%, COc1ccc(-c2nc3sc(CCNC(=O)Cc4ccc(F)cc4)c(C)n3n2)cc1 0.384%
